Measurements reported in PubChem BioAssay AID1963576 (National Center for Advancing Translational Sciences (NCATS), 2024).
Screen size: about 46,000 compounds; about 60 (0.1%) were called active. Inconclusive results (about 3%) are left out. The call rests on the fitted dose curve; in most records, active means well fitted inhibition curve with a large enough effect; inconclusive means small, poorly fitted or top-dose-only effect; inactive means no such curve, though single readings can be large or run the other way. The list shows a part of the results.

Experiment: Primary qHTS assay for Inhibitors of ovarian cancer metastasis using an organotypic tumor microenvironment (TME) model. Further: nearly all actives have a fitted effect of over 65% in size.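 On activity change, negative = inhibition: plate controls were DMSO wells for no effect and tomatine positive control wells for full effect.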
Conditions: SKOV3ip1-GFP adhesion/invasion on 3D omental model, fluorescence; series mostly up to 45.8 µM; activity change, negative = inhibition: at the top concentration
How it was run: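 A 3D layer of primary human omental fibroblasts, mesothelial cells, fibronectin and collagen I, grown 48 hr, received SKOV3ip1-GFP cells in serum-free medium plus compounds at 0.36-46 umol/L. After 2 hr RT and 16 hr 37 C, fixed adherent GFP cells were counted; normalized to DMSO and tomatine.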

Activity change, negative = inhibition, inactive:
Cc1ccc(S(=O)(=O)c2nnn3c2nc(N2CCC(C)CC2)c2cc(Cl)ccc23)cc1C -2.9%
Cc1cccc(CCNC(=O)C2CCN(c3ncnc4c3nc3n4CCCCC3)CC2)c1 2.15%
COc1ccc(CCNC(=O)CSC2=Nc3ccccc3C3=NC(CCC(=O)NCc4ccccc4)C(=O)N23)cc1OC (configuration not stated) -2.64%
Cc1ccc(Cl)cc1N1CCN(CCCNc2ncnc3onc(-c4ccc(Cl)cc4)c23)CC1 -2.5%
Cc1noc2ncnc(N3CCCC(C(=O)NC(C)C)C3)c12 (configuration not stated) 11%
CCOc1ccccc1CNC(=O)c1ccc2c(c1)sc1nc(-c3ccccc3)cn12 -1.48%
CCOC(=O)c1cc(-c2ccccc2)n(CCC(=O)Nc2cc(OCC)ccc2OCC)c1C 7.37%
COc1ccc(NC(=O)c2ccc(NC(=O)CCS(=O)(=O)c3cccs3)cc2)cc1OC -6.68%
CCNC(=O)Nc1ccc(Oc2ncnc(N)c2C=NOC)cc1Cl 5.04%
CCCCCn1c(CCCNC(=O)c2cccc(C)c2)nc2ccccc21 -0.593%
CCOC(=O)c1sc(NC(=O)C(C)Sc2nc(-c3ccccc3)cc(C(F)(F)F)n2)c(C(=O)OC)c1C (configuration not stated) 67.5%
Cc1c(C)n(Cc2ccccc2)c2ccc(C(=O)NCc3ccc(OC(C)C)cc3)cc12 7.54%
CCN(CC)CCCNC(=O)C1CCN(S(C)(=O)=O)CC1 -8.05%
O=C(CCCCn1c(=O)c2ccccc2n(CC(=O)Nc2ccccc2)c1=O)NCc1ccccc1Cl 11.7%
Cc1cccc(N2CCN(S(=O)(=O)c3ccc4oc(=O)c5ncn(C)c5c4c3)CC2)c1C -5.13%
CCc1nnc2c3ccccc3nc(Nc3ccccc3OC)n12 -4.04%
COc1ccc(Nc2nc3ccc(Cl)cc3n3nnnc23)cc1OC 2.28%
Cc1oc(-c2ccc(C(=O)Nc3cccc(C(F)(F)F)c3)cc2)nc1CSc1ccccc1 -5.82%
O=C(Oc1ccccc1Cl)c1cc(-c2ccc3c(c2)OCCO3)on1 0.392%
Cc1ccc(OCCn2cc(C(=O)c3ccco3)c3ccccc32)cc1C -28%
COC(=O)c1scc(-c2ccc(C)cc2)c1S(=O)(=O)Nc1cccc(Cl)c1C -8.73%
Cc1ccc(NC(=O)c2cnc(N3CCCCC3)c3ccccc23)cc1Cl -14.1%
O=C(CCCc1nc(-c2ccccc2)no1)Nc1cc(C(F)(F)F)cc(C(F)(F)F)c1 -16.2%
COc1ccc(NC(=O)COc2ccc(S(=O)(=O)NC3CCCCC3)cc2)c(OC)c1 -2.51%
Cc1ccc(CNC(=O)Cn2cc(S(=O)(=O)Cc3cccc(Cl)c3)c3ccccc32)cc1 -4.38%
COc1ccc(-c2nc3nc(C)cc(Nc4cccc(C(F)(F)F)c4)n3n2)cc1 -9.67%
Cc1noc(Cn2c(=O)c3ccccc3n(CC(=O)Nc3ccc(F)cc3F)c2=O)n1 5.62%
Cc1sc(-n2cccc2)c(C(C)NC(=O)Nc2ccccc2Cl)c1C (configuration not stated) -2.23%
CCOc1ccc(NC(=O)c2cc(S(=O)(=O)N3CCCC3)c[nH]2)cc1 -11.5%
Cc1cc(C)c(Cn2c3ccccc3c3cnn(CC(=O)NCc4ccc(Cl)cc4)c(=O)c32)c(C)c1 -19.1%
COC(=O)c1ccccc1NC(=O)c1cc2c(s1)-c1ccccc1OC2 -21.4%
COc1ccc(-c2c(C#N)c(SCC(=O)Nc3ccc(Br)cc3)nc(C)c2C(=O)Nc2ccccc2)cc1 8.76%
O=C(CN(c1cc(C(F)(F)F)ccc1Cl)S(=O)(=O)c1ccccc1)NCCc1ccccc1 23%
O=C(CSc1nc(-c2ccccc2)c2ccccc2n1)Nc1ccc(F)cc1 -12.4%
OC(CN1CCN(c2cccc(Cl)c2)CC1)C(c1ccccc1)c1ccccc1 (configuration not stated) -20.7%
COc1ccc(NC(=O)c2c(C)oc3ccc(O)c(CN4CCCCCC4)c23)cc1 3.08%
CCOc1ccc(Br)cc1S(=O)(=O)Nc1cccc(-c2ccc(OC)nn2)c1 4.29%
Cc1ccc(-c2ccc(CCC(=O)O)n2-c2cccc(C)c2C)cc1 -2.14%
Cc1ccc(Cl)cc1N1CCN(C(=O)c2ccc3c(c2)N(Cc2ccccc2)CCS3)CC1 3.19%
COc1cccc(NC(=O)Cc2csc(COc3cccc(C)c3)n2)c1 -12.6%
CCOC(=O)c1c(N)n(-c2cc(C)cc(C)c2)c2nc3ccccc3nc12 0.294%
COc1ccc(OC)c(NC(=O)CCNC(=O)Cn2cnc3ccccc3c2=O)c1 -3.12%
O=C(NCCc1ccccc1)c1nn(-c2ccccc2Cl)nc1CO -5.82%
O=C(Nc1cc(Cl)cc(Cl)c1)c1cc(S(=O)(=O)N2CCC3(CC2)OCCO3)ccc1F -20.6%
Fc1ccc(Nc2c(-c3ccccn3)nc3ccc(Cl)cn23)cc1 6.99%
Cc1cn2c(=O)cc(COC(=O)c3ccc(NC(=O)C(C)Oc4ccccc4)cc3)nc2s1 (configuration not stated) -4.23%
COc1ccc(CCNC(=O)c2cc(=O)[nH]c3ccc(S(=O)(=O)N4CCCCC4C)cc23)cc1OC (configuration not stated) 9.57%
Cc1ccc(C)c(-n2nnc(C(=O)Nc3ccc(Br)cc3)c2C)c1 -5.04%
COCCn1c(C)cc(O)c(C(c2ccc(OC)cc2)N2CCN(c3ccccc3)CC2)c1=O (configuration not stated) 3.07%
COc1ccc(NC(=O)CN(C)S(=O)(=O)c2ccc3c(c2)c(=O)n(C)c(=O)n3C)cc1 67.7%
NS(=O)(=O)c1ccc(NC(=O)c2csnn2)cc1 0.459%
CC1CCCCN1C(=O)CSc1c2c(nc3cc(Cl)ccc13)CCCC2 (configuration not stated) 4.54%
CCOCCn1c(=O)c2c(nc3n2CCN3c2ccc(C)c(C)c2)n(C)c1=O -11.4%
COc1cccc(N2CCN(C(=O)C3CCN(S(=O)(=O)c4cn(C)cn4)CC3)CC2)c1 -4.14%
Cc1cc2c(cc1S(=O)(=O)NCc1ccccc1Cl)OCC(=O)N2 -1.15%
CCc1ccc(-n2nc(CO)c(C(=O)NCc3cccs3)n2)cc1 6.97%
COc1ccc(OCC2c3cc(OC)c(OC)cc3CCN2C(=O)c2c(F)cccc2F)cc1 (configuration not stated) -9.68%
CCCCNC(=O)c1cn(C)c2ccc(S(=O)(=O)N3CCCC3)cc2c1=O 9.33%
COc1ccc(-c2nc3ccc(Cl)cn3c2Nc2ccc(C)cc2)cc1 -0.191%
COc1ccc(N2CC(NC(=O)C(=O)c3c(C)[nH]c4ccccc34)CC2=O)cc1 (configuration not stated) 4.37%
COc1cc(OC)c(NC(=O)Cn2cnc3sc(C)c(S(=O)(=O)N4CCC(C)CC4)c3c2=O)cc1Cl 6.17%
O=C(CSc1nc(=O)n(Cc2ccco2)c2c1CCC2)NCc1ccc(Cl)cc1 -15.4%
CCN(Cc1ccccc1)C(=O)Cn1c(=O)n(-c2ccc(Cl)c(Cl)c2)c(=O)c2c(C)c(C(=O)N(C)C)sc21 -4.23%
COc1ccccc1CNC(=O)CSc1nc(=O)[nH]c2c1CCCC2 20.4%
Cc1ccc(C(=O)N2CCN(Cc3cc(=O)n4nc(-c5ccccc5)sc4n3)CC2)cc1 -1.48%
Cc1cc(NC(=O)Nc2nnc(N3CCCCC3)s2)ccc1Br -3.2%
Cc1cc(C)n(-c2nc3ccccc3nc2Nc2cc(Cl)ccc2C)n1 -1.18%
Cc1cc(C)c2nc(N(Cc3cccnc3)C(=O)Cc3ccccc3)sc2c1 14.8%
COc1ccc(C(=O)Nc2ccc3oc(-c4cccnc4)nc3c2)cc1OC 15.5%
COCCn1c(=O)[nH]c2cc(C(=O)Nc3ccc(OC)cc3)ccc2c1=O -8.31%
COc1ccc(CCNC(=O)c2cc(=O)c3ccc(C)cc3o2)cc1OC -0.598%
CCn1c2ccccc2c2cc(NC(=O)COc3cc(C)ccc3C)ccc21 6.59%
O=C(COC(=O)c1cccc(NC(=O)c2ccc(Br)cc2)c1)c1ccc(Cl)cc1 -19.2%
CC(C)(C)c1ccc(OCCOCCn2c(-c3ccc(Cl)cc3)nc3ccccc3c2=O)cc1 -8.65%
CC(C)Oc1ccc(CNC(=O)C2CCN(Cc3cc4ccccc4n3Cc3ccccc3)CC2)cc1 -2.41%
CCc1cnc2c(c1SCC(=O)Nc1ccc(C(=O)OC)cc1)c(=O)n(C)c(=O)n2C -5.84%

outcome, inactive:
CCN1C(=O)c2ccccc2S(=O)c2ccc(C(=O)N3CCN(c4ccccc4)CC3)cc21 (configuration not stated)
CCn1c(NCc2ccc(OC)c(OC)c2)nc2ccccc21
COc1ccccc1C(=O)OCc1cc(=O)n2nc(C3CCCCC3)sc2n1
Cc1cccc(NC(=O)CN2C(=O)c3ccccc3Sc3ncccc32)c1C
CCOc1ccc(C(=O)Nc2ccc(-c3nc4cc(C)ccc4o3)cc2)cc1
COc1ccc(-c2nc3scc(CCNS(=O)(=O)c4ccc(F)c(C(F)(F)F)c4)n3n2)cc1OC
CC1=C(C(=O)Nc2ccccc2C)C(c2ccco2)n2ncnc2N1 (configuration not stated)
Cc1cc(C)c(S(=O)(=O)NCCc2cc3ccc(C)cc3[nH]c2=O)c(C)c1
CC1=C(C(=O)N2CCCCC2)C(c2cccc(Cl)c2)n2c(nc3ccccc32)N1 (configuration not stated)
Cc1ccc(C)c(N2CCN(C(=O)CN3C(=O)COc4ccc(S(=O)(=O)N5CCC(C)CC5)cc43)CC2)c1
CCn1nnc2cc(C(=O)Nc3ccc(OC)cc3)ccc21
COc1ccc(-n2c(=O)c3c4c(sc3n(Cc3ccc(C(C)(C)C)cc3)c2=O)CCC4)c(OC)c1
Cc1ccc(N2CCN(S(=O)(=O)c3ccc(-n4cnnn4)cc3)CC2)c(C)c1
CCOCCCNC(=O)c1c(NC(=O)c2nc(SC)ncc2Cl)sc2c1CCCC2
CC(C)c1ccc(NC(=O)c2cnc3sc(N4CCOCC4)nn3c2=O)cc1
Cc1cc(C)cc(NC(=O)COCc2cc(-c3ccc4c(c3)OCO4)on2)c1
COc1cccc(-c2nc(CS(=O)(=O)CC(=O)NCCc3ccc(Cl)cc3)c(C)o2)c1
Cc1ccc(NC(=O)CCn2c(=O)c3cccn3c3ccccc32)cc1Cl
CCOc1ccc(CNC(=O)c2ccc3c(c2)nc2n3CCCCC2)cc1
CCCCCn1c(=O)[nH]c2cc(C(=O)NC(C)CC)ccc2c1=O (configuration not stated)
Cc1cccc(Cn2c(COc3ccccc3)nc3ccccc32)c1
